# From PubChem BioAssay AID686979 (National Center for Advancing Translational Sciences (NCATS), 2013)
# Where “and” joins values, the source holds several entries; their conditions need not be identical. Equal values may be shown once. Among all 420,000 compounds or so, about 50,000 (12%) were called active. Inconclusive means that the source gave no clear call. Such entries were picked first, then a sample of the others. Calls come from the whole dose curve; as a rule, active = well fitted inhibition curve with a large enough effect; inconclusive = small, poorly fitted or top-dose-only effect; inactive = flat fitted curve, though single readings scatter. No potency is given beside an inconclusive call; the fits are too rough.
# Experiment: qHTS for Inhibitors of human tyrosyl-DNA phosphodiesterase 1 (TDP1): qHTS in cells in presence of CPT; note: nearly all actives have a fitted effect of over 55% in size
# Conditions: chicken DT40 Tdp1-/-;hTDP1 cells + 20 nM CPT, ATP luminescence, 48 h; activity change, negative = growth inhibition: at 46.2 µM (top of the series)
# Procedure, shortened: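 Cell growth measured by CellTiter-Glo luminescence after a minimum 48 h, 37 C compound exposure with 20 nM CPT in Tdp1-knockout DT40 cells stably expressing hTDP1, seeded 400/well; qHTS titration format.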
# % is set by controls: 0 for no effect and ±100 for the full control effect; potency is the fitted concentration of half-maximal effect; tags give direction and shape of the fitted curve.
Compound,Potency,"activity change, negative = growth inhibition"
CS(=O)(=O)c1ccc(C(=O)OCC(=O)NCC2CCCO2)cc1[N+](=O)[O-] (configuration not stated),active: 10 µM,
O=C(COc1cc(F)ccc1[N+](=O)[O-])Nc1ccc(N2CCCCC2)cc1,"inconclusive [inhibitor, single point]",
CC1(C(=O)Nc2ccc3nc[nH]c3c2)CCN1C(=O)C/C=C/c1ccccc1 (configuration not stated),"inconclusive [inhibitor, single point]",
COc1ccc(NC(=O)Nc2ccc3nsnc3c2)cc1,"inconclusive [inhibitor, single point]",
CCC(Sc1nc2ncccc2o1)C(=O)Nc1ccc(OC)c(OC)c1 (configuration not stated),,inactive: 4.64%
COc1ccc(C(CNC(=O)CNC(=O)c2cccc(Cl)c2)N2CCCC2)cc1 (configuration not stated),,inactive: 0.376%
CCC1CN(C(=O)N2CCC(C(=O)N3CCN(c4ccccc4F)CC3)CC2)c2ccccc2O1 (configuration not stated),active: 16.4 µM,
O=P(CCC(F)(F)F)(CCC(F)(F)F)CCC(F)(F)F,,inactive: -17.3%
COC(=O)c1c(NC(=O)C2CCCO2)sc2c1CCC2 (configuration not stated),"inconclusive [inhibitor, partial curve, poor fit]",
CC(c1ccc2c(c1)OCO2)n1c(=S)[nH]c2ccccc2c1=O (configuration not stated),"inconclusive [inhibitor, single point]",
CCOc1ccccc1N(C)C(=O)c1c2c(nc3ccccc13)C(=O)N(C1CCCCC1)C2,active: 16.4 µM,
CCC(CC)C(=O)N(C)c1c(C)nc2c(OCC3CCCCC3)cccn12,"inconclusive [inhibitor, single point]",
CCOC(=O)c1cc2sccc2n1CC(=O)N1CCc2ccccc21,active: 4.61 µM,
N#CCCn1c(=O)c(-c2cccc(C#N)c2)nc2cnc(N3CCOCC3)nc21,,inactive: 2.61%
CSc1oc(-c2cccs2)nc1S(=O)(=O)c1ccc(Br)cc1,"inconclusive [inhibitor, single point]",
CC(C)Cc1ccc(C(C)C(=O)Nc2ccc(O)cc2)cc1 (configuration not stated),active: 23.1 µM,
CCOC(=O)C1=CCC(c2cccs2)N(S(=O)(=O)c2ccc(C)cc2)C1 (configuration not stated),"inconclusive [inhibitor, single point]",
O=C([C@@H]1CC=C[C@@H]2CCN(C3CC3)C(=O)[C@@H]21)N1CCOCC1,,inconclusive: -30.5% [inhibitor]
COC(CNC(=O)c1ccc2nc(-c3ccccc3)c(-c3ccccc3)nc2c1)OC,"inconclusive [inhibitor, single point]",
COC(=O)[C@@]1(Cc2ccc(OC)cc2)[C@H]2c3cc(C(=O)N4CCCC4)n(Cc4ccc(OC(F)(F)F)cc4)c3C[C@H]2CN1C(=O)c1ccccc1,active: 16.4 µM,
Cc1oc2c(c1C(=O)NCCO)CCCC2,,inactive: -5.22%
COc1ccccc1NC(=O)CN(c1ccc(C)cc1)S(=O)(=O)c1c(C)n[nH]c1C,,inconclusive: -32.7% [inhibitor]
CCC(=O)c1ccc(OCCN2CCOCC2)cc1,,inactive: 13.8%

Compound,Potency,"activity change, negative = growth inhibition"
Cc1ccc(CNS(=O)(=O)c2ccc3c(c2)N(C)CCO3)cc1,"inconclusive [inhibitor, single point]",
Cc1ccc(C)c(NC(=O)CN(C)C(=O)CN2C(=O)NC3(CCc4ccccc43)C2=O)c1 (configuration not stated),active: 9.2 µM,
CC(=O)Nc1ccc(S(=O)(=O)N2CN(c3ccc(C)cc3)c3nc4ccccc4nc32)cc1,"inconclusive [inhibitor, single point]",
O=C(O)/C(=C\c1ccccc1)c1ccc2ccccc2c1,,inactive: 8.43%
O=C(Nc1ccc(S(=O)(=O)NCC2CCCO2)cc1)c1ccccc1 (configuration not stated),"inconclusive [inhibitor, partial curve]",
COc1cc(CN=Cc2c(O)n(Cc3ccccc3)c(=S)[nH]c2=O)cc(OC)c1,,inactive: 0.038%
Cc1ccc(C)c(C(=O)C(C)OC(=O)CN2C(=O)NC3(CC(C)CC(C)(C)C3)C2=O)c1 (configuration not stated),,inactive: -0.354%
CCN(CC)C(=O)[C@H]1C[C@H](CC(=O)NCCC2=CCCCC2)C(=O)N2CCc3c([nH]c4ccc(Cl)cc34)[C@]12C,active: 16.4 µM,
Cc1cccc(-n2c(C)cc(/C=C3\NC(=O)NC3=O)c2C)c1,"inconclusive [inhibitor, single point]",
c1ccc2c(c1)CCN(c1ncnc3nc[nH]c13)C2,"inconclusive [inhibitor, partial curve, poor fit]",inconclusive: -34% [inhibitor]
COC(=O)Cn1c(=O)oc2ccc(C)cc21,"inconclusive [inhibitor, single point]",
CSc1ccc(-c2c(C#N)c(N)nc3c2c(C)nn3-c2ccccc2)cc1,"inconclusive [inhibitor, single point]",
Cc1nn(-c2cc(C)c3ccccc3n2)c2c1CCC2,"inconclusive [inhibitor, single point]",
CCC(CO)Oc1cc(NC(=O)c2ccc(F)cc2)c2ncn(C(C)C)c2c1 (configuration not stated),"inconclusive [inhibitor, single point]",
CCc1ccc(OCC(=O)N/N=C(\C)c2ccc(-n3ccnc3)cc2)cc1,"inconclusive [inhibitor, single point]",
COc1ccc(-c2nc(NC(=O)c3n[nH]c(=O)c4ccccc34)sc2C)cc1,active: 20.6 µM,
Cc1ccc(C(=O)Nc2cccc(C(=O)NC3CCCC3)c2)cc1,"inconclusive [inhibitor, single point]",
Cc1cc(=O)oc2cc(OCC(=O)N3CCc4ccccc4C3)ccc12,,inactive: -28.6%
O=S(=O)(c1cccc2c(Cl)cccc12)N1CCCNCC1,active: 9.44 µM and active: 9.2 µM,
COCCOC(=O)c1c(NC(=O)CNc2ccc(C)c(F)c2)sc(C(N)=O)c1C,"inconclusive [inhibitor, full curve]",
O=C(c1ccc(Cn2cc(Br)cn2)cc1)N1N=C(C(F)F)CC1(O)C(F)F (configuration not stated),,inactive: -20.2%
Cc1ccsc1/C=N/NC(=O)CSCc1ccc(Cl)cc1,,inactive: -3.3%
COCC(C)n1c(C)cc(C(=O)COC(=O)c2ccc3c(c2)NC(=O)CS3)c1C (configuration not stated),"inconclusive [inhibitor, single point]",
